Results as given in a collection of fitness landscapes (doi:10.1016/j.celrep.2020.107928).
Over roughly 81,000 sequences, “one-hybrid fitness for binding parS DNA” has its median near -0.17; the highest 2% begin near 0.51. The list shows a part of the results.

B1: Caulobacter ParB omega fusion; a variant is named by its letters at X, in order, B8GW30 (parent)
chain: MESVVVGEPGMSEGRRGLGRGLSALLGEVDAAPAQAPGEQLGGSREAPIEILQRNPDQPRRTFREEDLEDLSNSIREKGVLQPILVRPSPDTAGEYQIVAGERAWRAAQRAGLKTVPIMVRELDDLAVLEIGIIENVQRADLNVLEEALSYKVLMEKFERTQENIAQTIGKSXSHVANXMRLLXLPDEVQSYLVSGELTAXHARAIAAAADPVALAKQIIEGGLSVRETEALARKAPNLSAGKSKGGRPPRVKDTDTQALESDLSSVLGLDVSIDHRGSTGTLTITYATLEQLDDLCNRLTRGI

Variants of: B1
Assay: one-hybrid fitness for binding parS DNA (scaled: cognate 1, non-cognate 0); higher = stronger binding
Conditions: with parS DNA site
In short: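 Fitness here means the log change in variant-to-wild-type read ratio between plasmids sequenced before and after selection. That scale was set so cognate equals 1 and non-cognate equals 0. The selection was a bacterial one-hybrid screen of Caulobacter ParB libraries, four specificity codons randomised, in E. coli USO carrying a HIS3 reporter with the site 19 bp from the promoter, grown 48 hours at 37°C on M9-minus-histidine with 0.1 mM IPTG and 5 mM 3-AT.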

Variant | one-hybrid fitness for binding parS DNA
WSEI | ≤ 0.2
WHLT | ≤ 0.2
NAGY | ≤ 0.2
SRQQ | ≤ 0.2
RIHI | ≤ 0.2
HEKF | ≤ 0.2
QAHK | ≤ 0.2
MWAR | ≤ 0.2
SRNK | ≤ 0.2
MMKN | ≤ 0.2
PSPI | ≤ 0.2
YIHY | ≤ 0.2
LYQE | ≤ 0.2
RRHV | ≤ 0.2
QFPM | ≤ 0.2
LGVM | ≤ 0.2
PCIS | ≤ 0.2
VEQR | ≤ 0.2
PPMN | ≤ 0.2
EKDF | ≤ 0.2
TCWR | ≤ 0.2
SPRA | ≤ 0.2
NCMS | ≤ 0.2
PTVR | ≤ 0.2
KAYG | ≤ 0.2
VNNF | ≤ 0.2

Variant | one-hybrid fitness for binding parS DNA
LVWH | ≤ 0.2
SPCC | ≤ 0.2
TKMN | ≤ 0.2
MPNL | ≤ 0.2
PRND | ≤ 0.2
PLLI | ≤ 0.2
MIVS | ≤ 0.2
ATDT | ≤ 0.2
YIVY | ≤ 0.2
PCAL | ≤ 0.2
TRQP | ≤ 0.2
QLAG | ≤ 0.2
HRCR | ≤ 0.2
QRSK | ≤ 0.2
RFPW | ≤ 0.2
RICV | ≤ 0.2
PQVP | ≤ 0.2
CREG | ≤ 0.2
RDTA | ≤ 0.2
TMPL | ≤ 0.2
IYKV | ≤ 0.2
KTRA | ≤ 0.2
HQPQ | ≤ 0.2
RKRL | ≤ 0.2
RFAW | ≤ 0.2
GLAT | ≤ 0.2

Variant | one-hybrid fitness for binding parS DNA
SVWP | ≤ 0.2
RSVR | ≤ 0.2
PMTN | ≤ 0.2
PVFT | ≤ 0.2
AFRY | ≤ 0.2
NHVS | ≤ 0.2
QPTW | ≤ 0.2
NRNR | ≤ 0.2
SDGT | ≤ 0.2
FLES | ≤ 0.2
YINC | ≤ 0.2
STYG | ≤ 0.2
CRRH | ≤ 0.2
TCPK | ≤ 0.2
HFLY | ≤ 0.2
VFTI | ≤ 0.2
HVPD | ≤ 0.2
VHLW | ≤ 0.2
ADRT | ≤ 0.2
LYRA | ≤ 0.2
DYHG | ≤ 0.2
IWDS | ≤ 0.2
HRVA | ≤ 0.2
AGYL | ≤ 0.2
IKVS | ≤ 0.2
KRGR | 0.339

Variant | one-hybrid fitness for binding parS DNA
HYKE | ≤ 0.2
DSNC | ≤ 0.2
IGIL | ≤ 0.2
QSTI | ≤ 0.2
VFKV | ≤ 0.2
HTMC | ≤ 0.2
TNDH | ≤ 0.2
LYPR | ≤ 0.2
PMDY | ≤ 0.2
GYSA | ≤ 0.2
KRKD | ≤ 0.2
PDPK | ≤ 0.2
LRCL | ≤ 0.2
YFNT | ≤ 0.2
MNTW | ≤ 0.2
GMGS | ≤ 0.2
ICRL | ≤ 0.2
KQEY | ≤ 0.2
RRGY | 0.361
IIPF | ≤ 0.2
KSAR | ≤ 0.2
HPMP | ≤ 0.2
KWIR | ≤ 0.2
KMHG | ≤ 0.2
CITG | ≤ 0.2
KFTM | ≤ 0.2

Variant | one-hybrid fitness for binding parS DNA
GKAF | ≤ 0.2
RAKN | 0.462
KRDT | ≤ 0.2
QCTL | ≤ 0.2
KVHR | ≤ 0.2
LNIR | ≤ 0.2
PRKF | ≤ 0.2
VSNL | ≤ 0.2
QLWT | ≤ 0.2
STPS | ≤ 0.2
NAVF | ≤ 0.2
SQLN | ≤ 0.2
DMRG | ≤ 0.2
MHYH | ≤ 0.2
LTWS | ≤ 0.2
SYHC | ≤ 0.2
ATRD | ≤ 0.2
LTPW | ≤ 0.2
CFSV | ≤ 0.2
NETE | ≤ 0.2
HIAN | ≤ 0.2
LRKS | ≤ 0.2
TQRT | ≤ 0.2
HFSR | ≤ 0.2
KCKY | ≤ 0.2
RWYF | ≤ 0.2

Variant | one-hybrid fitness for binding parS DNA
HDAF | ≤ 0.2
HSQI | ≤ 0.2
DYSP | ≤ 0.2
WHAG | ≤ 0.2
LGQT | ≤ 0.2
SNSL | ≤ 0.2
ADTA | ≤ 0.2
HRSD | ≤ 0.2
MRFK | ≤ 0.2
QCEG | ≤ 0.2
DSWR | ≤ 0.2
LSRF | ≤ 0.2
LTMM | ≤ 0.2
PFII | ≤ 0.2
DVNV | ≤ 0.2
VSLE | ≤ 0.2
CKHP | ≤ 0.2
EQEG | ≤ 0.2
KSNG | ≤ 0.2
NPLW | ≤ 0.2
SDLV | ≤ 0.2
WLYR | ≤ 0.2
AYYR | ≤ 0.2
